Measurements: the supplement of paper PMC8728848
The other results are listed elsewhere or left out.

Tests used:
Test in all cases: glycan array binding signal (z-score within array); higher = stronger binding
Details in all cases: glycan notation: IUPAC condensed, linker removed
[1] = target: Neu5Ac(a2-3)Gal(b1-4)[Fuc(a1-3)]GlcNAc6S
In short: (§1)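 Glycan array data came from 3228 arrays in the Consortium for Functional Glycomics database, and only arrays with an available protein sequence were kept. Glycan names were put into IUPAC-condensed notation, and columns mapping to the same glycan were averaged. The binding signal is a within-array Z-score, averaged across arrays of one protein sequence run at different concentrations or buffers and across linkers. A negative Z-score can be read as non-binding.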

[2] = target: Neu5Ac(a2-3)Gal6S(b1-4)GlcNAc
In short: as §1

[3] = target: Neu5Ac(a2-3)Gal6S(b1-4)[Fuc(a1-3)]GlcNAc
In short: as §1

[4] = target: Neu5Ac(a2-3)GalNAc
In short: as §1

[5] = target: Neu5Ac(a2-3)GalNAc(b1-4)GlcNAc
In short: as §1

[6] = target: Neu5Ac(a2-3)[GalNAc(b1-4)]Gal(b1-4)Glc
In short: as §1

[7] = target: Neu5Ac(a2-3)[GalNAc(b1-4)]Gal(b1-4)GlcNAc
In short: as §1

[8] = target: Neu5Ac(a2-3)[Neu5Ac(a2-6)]GalNAc
In short: as §1

[9] = target: Neu5Ac(a2-6)Gal
In short: as §1

[10] = target: Neu5Ac(a2-6)Gal(b1-4)Glc
In short: as §1

[11] = target: Neu5Ac(a2-6)Gal(b1-4)GlcNAc
In short: as §1

[12] = target: Neu5Ac(a2-6)Gal(b1-4)GlcNAc(b1-2)Man(a1-3)[Neu5Ac(a2-6)Gal(b1-4)GlcNAc(b1-2)Man(a1-6)]Man(b1-4)GlcNAc(b1-4)GlcNAc
In short: as §1

[13] = target: Neu5Ac(a2-6)Gal(b1-4)GlcNAc(b1-3)Gal(b1-4)GlcNAc
In short: as §1

[14] = target: Neu5Ac(a2-6)Gal(b1-4)GlcNAc(b1-3)Gal(b1-4)[Fuc(a1-3)]GlcNAc(b1-3)Gal(b1-4)[Fuc(a1-3)]GlcNAc
In short: as §1

[15] = target: Neu5Ac(a2-6)Gal(b1-4)GlcNAc6S
In short: as §1

[16] = target: Neu5Ac(a2-6)GalNAc
In short: as §1

[17] = target: Neu5Ac(a2-6)GalNAc(b1-4)GlcNAc
In short: as §1

[18] = target: Neu5Ac(a2-8)Neu5Ac
In short: as §1

[19] = target: Neu5Ac(a2-8)Neu5Ac(a2-3)Gal(b1-4)Glc
In short: as §1

[20] = target: Neu5Ac(a2-8)Neu5Ac(a2-3)[GalNAc(b1-4)]Gal(b1-4)Glc
In short: as §1

[21] = target: Neu5Ac(a2-8)Neu5Ac(a2-8)Neu5Ac
In short: as §1

[22] = target: Neu5Ac(a2-8)Neu5Ac(a2-8)Neu5Ac(a2-3)Gal(b1-4)Glc
In short: as §1

[23] = target: Neu5Ac(a2-8)Neu5Ac(a2-8)Neu5Ac(a2-3)[GalNAc(b1-4)]Gal(b1-4)Glc
In short: as §1

[24] = target: Neu5Ac(a2-8)Neu5Ac(a2-8)Neu5Ac(a2-8)Neu5Ac(a2-3)[GalNAc(b1-4)]Gal(b1-4)Glc
In short: as §1

[25] = target: Neu5Ac(b1-6)GalNAc
In short: as §1

[26] = target: Neu5Ac(b2-6)Gal(b1-4)GlcNAc
In short: as §1

[27] = target: Neu5Ac9Ac(a2-6)Gal(b1-4)GlcNAc
In short: as §1

[28] = target: Neu5Gc(a2-3)Gal(b1-3)GlcNAc
In short: as §1

[29] = target: Neu5Gc(a2-3)Gal(b1-3)[Fuc(a1-4)]GlcNAc
In short: as §1

[30] = target: Neu5Gc(a2-3)Gal(b1-4)Glc
In short: as §1

[31] = target: Neu5Gc(a2-3)Gal(b1-4)GlcNAc
In short: as §1

[32] = target: Neu5Gc(a2-3)Gal(b1-4)[Fuc(a1-3)]GlcNAc
In short: as §1

[33] = target: Neu5Gc(a2-6)Gal(b1-4)GlcNAc
In short: as §1

[34] = target: Neu5Gc(a2-6)GalNAc
In short: as §1

B1: DCAL1 (Homo sapiens), Q8IZS7 (protein)
chain: MVSNFFHVIQVFEKSATLISKTEHIGFVIYSWRKSTTHLGSRRKFAISIYLSEVSLQKYDCPFSGTSFVVFSLFLICAMAGDVVYADIKTVRTSPLELAFPLQRSVSFNFSTVHKSCPAKDWKVHKGKCYWIAETKKSWNKSQNDCAINNSYLMVIQDITAMVRFNI
glycan array binding signal (z-score) [1]: -0.181
glycan array binding signal (z-score) [2]: -0.159
glycan array binding signal (z-score) [3]: -0.155
glycan array binding signal (z-score) [4]: -0.273
glycan array binding signal (z-score) [5]: -0.21
glycan array binding signal (z-score) [6]: -0.321
glycan array binding signal (z-score) [7]: -0.221
glycan array binding signal (z-score) [8]: -0.241
glycan array binding signal (z-score) [9]: -0.275
glycan array binding signal (z-score) [10]: -0.221
glycan array binding signal (z-score) [11]: -0.212
glycan array binding signal (z-score) [12]: -0.205
glycan array binding signal (z-score) [13]: -0.203
glycan array binding signal (z-score) [14]: -0.132
glycan array binding signal (z-score) [15]: -0.012
glycan array binding signal (z-score) [16]: 0.533
glycan array binding signal (z-score) [17]: -0.309
glycan array binding signal (z-score) [18]: -0.225
glycan array binding signal (z-score) [19]: -0.146
glycan array binding signal (z-score) [20]: -0.191
glycan array binding signal (z-score) [21]: -0.264
glycan array binding signal (z-score) [22]: -0.269
glycan array binding signal (z-score) [23]: -0.202
glycan array binding signal (z-score) [24]: -0.251
glycan array binding signal (z-score) [25]: -0.293
glycan array binding signal (z-score) [26]: -0.195
glycan array binding signal (z-score) [27]: -0.257
glycan array binding signal (z-score) [28]: -0.196
glycan array binding signal (z-score) [29]: -0.296
glycan array binding signal (z-score) [30]: -0.225
glycan array binding signal (z-score) [31]: -0.191
glycan array binding signal (z-score) [32]: -0.29
glycan array binding signal (z-score) [33]: -0.249
glycan array binding signal (z-score) [34]: -0.132
